Laboratory results published in the supplement of paper PMC12423691.
Some of the results follow. Binding of human transcription factors and regulators to the viral nucleoprotein by AlphaScreen, crude cell-free proteins, amounts not normalised, one pass. Fold of the Venus control; higher = more signal. No active / inactive call. Single-pass screen; sequences are the whole Swiss-Prot entries looked up by name.

B1: RFX5, P48382 (protein)
chain: MAEDEPDAKSPKTGGRAPPGGAEAGEPTTLLQRLRGTISKAVQNKVEGILQDVQKFSDNDKLYLYLQLPSGPTTGDKSSEPSTLSNEEYMYAYRWIRNHLEEHTDTCLPKQSVYDAYRKYCESLACCRPLSTANFGKIIREIFPDIKARRLGGRGQSKYCYSGIRRKTLVSMPPLPGLDLKGSESPEMGPEVTPAPRDELVEAACALTCDWAERILKRSFSSIVEVARFLLQQHLISARSAHAHVLKAMGLAEEDEHAPRERSSKPKNGLENPEGGAHKKPERLAQPPKDLEARTGAGPLARGERKKSVVESSAPGANNLQVNALVARLPLLLPRAPRSLIPPIPVSPPILAPRLSSGALKVATLPLSSRAGAPPAAVPIINMILPTVPALPGPGPGPGRAPPGGLTQPRGTENREVGIGGDQGPHDKGVKRTAEVPVSEASGQAPPAKAAKQDIEDTASDAKRKRGRPRKKSGGSGERNSTPLKSAAAMESAQSSRLPWETWGSGGEGNSAGGAERPGPMGEAEKGAVLAQGQGDGTVSKGGRGPGSQHTKEAEDKIPLVPSKVSVIKGSRSQKEAFPLAKGEVDTAPQGNKDLKEHVLQSSLSQEHKDPKATPP
B2: SNAI2, O43623 (protein)
chain: MPRSFLVKKHFNASKKPNYSELDTHTVIISPYLYESYSMPVIPQPEILSSGAYSPITVWTTAAPFHAQLPNGLSPLSGYSSSLGRVSPPPPSDTSSKDHSGSESPISDEEERLQSKLSDPHAIEAEKFQCNLCNKTYSTFSGLAKHKQLHCDAQSRKSFSCKYCDKEYVSLGALKMHIRTHTLPCVCKICGKAFSRPWLLQGHIRTHTGEKPFSCPHCNRAFADRSNLRAHLQTHSDVKKYQCKNCSKTFSRMSLLHKHEESGCCVAH
B3: NKX2-8, O15522 (protein)
chain: MATSGRLSFTVRSLLDLPEQDAQHLPRREPEPRAPQPDPCAAWLDSERGHYPSSDESSLETSPPDSSQRPSARPASPGSDAEKRKKRRVLFSKAQTLELERRFRQQRYLSAPEREQLASLLRLTPTQVKIWFQNHRYKLKRARAPGAAESPDLAASAELHAAPGLLRRVVVPVLVRDGQPCGGGGGGEVGTAAAQEKCGAPPAAACPLPGYPAFGPGSALGLFPAYQHLASPALVSWNW
B4: ZNF174, Q15697 (protein)
chain: MAAKMEITLSSNTEASSKQERHIIAKLEEKRGPPLQKNCPDPELCRQSFRRFCYQEVSGPQEALSQLRQLCRQWLQPELHTKEQILELLVMEQFLTILPPEIQARVRHRCPMSSKEIVTLVEDFHRASKKPKQWVAVCMQGQKVLLEKTGSQLGEQELPDFQPQTPRRDLRESSPAEPSQAGAYDRLSPHHWEKSPLLQEPTPKLAGTEAPRMRSDNKENPQQEGAKGAKPCAVSAGRSKGNGLQNPEPRGANMSEPRLSRRQVSSPNAQKPFAHYQRHCRVEYISSPLKSHPLRELKKSKGGKRSLSNRLQHLGHQPTRSAKKPYKCDDCGKSFTWNSELKRHKRVHTGERPYTCGECGNCFGRQSTLKLHQRIHTGEKPYQCGQCGKSFRQSSNLHQHHRLHHGD
B5: ZNF445, P59923 (protein)
chain: MPPGRWHAAYPAQAQSSRERGRLQTVKKEEEDESYTPVQAARPQTLNRPGQELFRQLFRQLRYHESSGPLETLSRLRELCRWWLRPDVLSKAQILELLVLEQFLSILPGELRVWVQLHNPESGEEAVALLEELQRDLDGTSWRDPGPAQSPDVHWMGTGALRSAQIWSLASPLRSSSALGDHLEPPYEIEARDFLAGQSDTPAAQMPALFPREGCPGDQVTPTRSLTAQLQETMTFKDVEVTFSQDEWGWLDSAQRNLYRDVMLENYRNMASLVGPFTKPALISWLEAREPWGLNMQAAQPKGNPVAAPTGDDLQSKTNKFILNQEPLEEAETLAVSSGCPATSVSEGIGLRESFQQKSRQKDQCENPIQVRVKKEETNFSHRTGKDSEVSGSNSLDLKHVTYLRVSGRKESLKHGCGKHFRMSSHHYDYKKYGKGLRHMIGGFSLHQRIHSGLKGNKKDVCGKDFSLSSHHQRGQSLHTVGVSFKCSDCGRTFSHSSHLAYHQRLHTQEKAFKCRVCGKAFRWSSNCARHEKIHTGVKPYKCDLCEKAFRRLSAYRLHRETHAKKKFLELNQYRAALTYSSGFDHHLGDQSGEKLFDCSQCRKSFHCKSYVLEHQRIHTQEKPYKCTKCRKTFRWRSNFTRHMRLHEEEKFYKQDECREGFRQSPDCSQPQGAPAVEKTFLCQQCGKTFTRKKTLVDHQRIHTGEKPYQCSDCGKDFAYRSAFIVHKKKHAMKRKPEGGPSFSQDTVFQVPQSSHSKEEPYKCSQCGKAFRNHSFLLIHQRVHTGEKPYKCRECGKAFRWSSNLYRHQRIHSLQKQYDCHESEKTPNVEPKILTGEKRFWCQECGKTFTRKRTLLDHKGIHSGEKRYKCNLCGKSYDRNYRLVNHQRIHSTERPFKCQWCGKEFIGRHTLSSHQRKHTRAAQAERSPPARSSSQDTKLRLQKLKPSEEMPLEDCKEACSQSSRLTGLQDISIGKKCHKCSICGKTFNKSSQLISHKRFHTRERPFKCSKCGKTFRWSSNLARHMKNHIRD
B6: MEIS3, Q99687 (protein)
chain: MARRYDELPHYPGIVDGPAALASFPETVPAVPGPYGPHRPPQPLPPGLDSDGLKREKDEIYGHPLFPLLALVFEKCELATCSPRDGAGAGLGTPPGGDVCSSDSFNEDIAAFAKQVRSERPLFSSNPELDNLMIQAIQVLRFHLLELEKVHDLCDNFCHRYITCLKGKMPIDLVIEDRDGGCREDFEDYPASCPSLPDQNNMWIRDHEDSGSVHLGTPGPSSGGLASQSGDNSSDQGDGLDTSVASPSSGGEDEDLDQERRRNKKRGIFPKVATNIMRAWLFQHLSHPYPSEEQKKQLAQDTGLTILQVNNWFINARRRIVQPMIDQSNRTGQGAAFSPEGQPIGGYTETQPHVAVRPPGSVGMSLNLEGEWHYL
B7: EGLN1, Q9GZT9 (protein)
chain: MANDSGGPGGPSPSERDRQYCELCGKMENLLRCSRCRSSFYCCKEHQRQDWKKHKLVCQGSEGALGHGVGPHQHSGPAPPAAVPPPRAGAREPRKAAARRDNASGDAAKGKVKAKPPADPAAAASPCRAAAGGQGSAVAAEAEPGKEEPPARSSLFQEKANLYPPSNTPGDALSPGGGLRPNGQTKPLPALKLALEYIVPCMNKHGICVVDDFLGKETGQQIGDEVRALHDTGKFTDGQLVSQKSDSSKDIRGDKITWIEGKEPGCETIGLLMSSMDDLIRHCNGKLGSYKINGRTKAMVACYPGNGTGYVRHVDNPNGDGRCVTCIYYLNKDWDAKVSGGILRIFPEGKAQFADIEPKFDRLLFFWSDRRNPHEVQPAYATRYAITVWYFDADERARAKVKYLTGEKGVRVELNKPSDSVGKDVF

These binders were tested against nucleoprotein N of Crimean-Congo hemorrhagic fever virus (assay: AlphaScreen luminescence signal relative to Venus negative control (fold); higher = stronger binding to CCHFV N).
Description: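 AlphaScreen binding of cell-free made, FLAG-GST-tagged human transcription factors and regulators (crude translation products) to biotinylated N protein; signal as fold of the FLAG-GST-Venus control. One pass.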
For B1, the AlphaScreen luminescence signal was 4.28. Binder B2 has an AlphaScreen luminescence signal of 2.47. B3 showed an AlphaScreen luminescence signal of 3.12. For B4, the AlphaScreen luminescence signal was 3.07. Binder B5 has an AlphaScreen luminescence signal of 4.37. For B6, the AlphaScreen luminescence signal was 1.3. For B7, the AlphaScreen luminescence signal was 2.05.
